Data reported in PubChem BioAssay (NCI).
Values joined by “and” are separate entries in the source; they are usually repeats but may differ in a detail not shown here. Equal values may be shown once.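 Test compounds were applied to cells in 96-well plates for 48 hours at 5 doses. Here, GI50 denotes the concentration required for 50% inhibition of growth. TGI marks complete inhibition of growth.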

test system: NCI-H322M lung; experiment: inhibition of tumour cell growth, NCI panel, 48 h

Structure (SMILES) | TGI [µM] | GI50
O=C1/C(=C\c2cccc(Oc3ccccc3)c2)SC(c2ccccc2)N1c1ccc(Cl)cc1 (stereo not given) | > 100 | 
COc1ccc(-c2cn[nH]c2-c2cc(OC)c(OC)c(OC)c2)cc1N | > 100 | 0.0622 µM and 0.0988 µM
COc1ccc(-c2nc(-c3cn(C)c4ncccc34)cs2)cc1 | > 100 | > 100 µM
O=C(Nc1ncc(Cc2ccccc2Cl)s1)c1ccc2c(c1)OCCO2 | > 100 | 0.75 µM
COC(=O)c1nc(NC#N)[nH]c(=O)c1C | > 100 | 
CC(C)(O)C1OCC(C2CCC3(C)C4=CCC5C(C)(C)C(O)CCC5(C)C4CCC23C)CC1O (stereo not given) | 30.1 | 
ON=C1CCC(c2ccccc2)CC1 (stereo not given) | > 100 | 
COC(=O)Nc1nc2ccccc2c(=O)[nH]1 | > 100 | 
O=C1CC2(CCC(O)(c3ccc(Cl)cc3)C(C(=O)c3ccc(Cl)cc3)C2)C(=O)c2ccccc2N1 (stereo not given) | > 92.4 | 
CCCCCCCCCCCCCCCCP(=O)(O)OP(=O)(O)OCC1OC(n2cnc3c(N)ncnc32)C(O)C1O (stereo not given) | > 100 | 
C[Si](C)(C)OC1c2[nH]c3ccccc3c2CN2C(=O)CCC12 (stereo not given) | > 100 | 
Cc1c2c(n(CCc3ccccc3)c1C)NN=C(C#N)S2(=O)=O | > 100 | 
O=c1cc(-c2cccc(OC(F)(F)F)c2)[nH]c2cc3c(cc12)OCO3 | > 100 | 
CCN(CC)CCCCCCCNc1c2ccc(Cl)cc2nc2ccc(OC)cc12 | 1.54 | 0.4 µM
C/C=C(\C)C(=O)O[C@H]1C=CC(=O)O[C@H]1CNC(=O)[C@H](C)O | 54 | 21.4 µM
S=C(N/N=C/c1ccccn1)Nc1ccccn1 | > 100 | 1.68 µM
Nc1c(-c2nc3ccccc3[nH]2)sc(=S)n1-c1ccccc1 | > 100 | 
CC(C)(C)[C@H]1CO[C@]2(C)[C@@H]3C[C@@H]3C(=O)N12 | > 100 | 
CC1=C(OC2OC(CO)C(O)C(O)C2O)C(=O)C[C@H]2C1=CC[C@@H]1[C@@]2(C)C(=O)C[C@]2(C)[C@@H]([C@@](C)(O)C(=O)CCC(C)(C)O)[C@H](O)C[C@@]12C (stereo not given in full) | > 100 | 
C[C@]12CC(c3ccccc3O1)C(C(=O)NC13CC4CC(CC(C4)C1)C3)C(=O)N2 (stereo not given in full) | 45.5 | 
C=C[C@H]1CN2CCc3c([nH]c4c([C@H]5CCCN5C)c(O)ccc34)[C@@H]2C[C@@H]1C[C@H]1c2[nH]c3ccccc3c2CCN1C | 3.02 | 
CN(C)CCNc1ccc2c(=O)n(CCN(C)C)c(=O)n3c4ccc(N)cc4c(=O)c1c23 | 0.295 | 
CC1(C)OCC(CO)(Nc2nc(N3CC3)nc(N3CC3)n2)CO1 | 76.5 | 

Structure (SMILES) | TGI [µM] | GI50
N#CC12C3C4CC5C6C4C1C6C(O)(C53)N2Cc1ccccc1 (stereo not given) | > 100 | 
O=S1(=O)C[C@@H](O)[C@H](O)CS1 | > 100 | 
N=C1C(=N)c2ccccc2-c2ccccc21 | 3.26 | 
COC(=O)C1=C(O)C(O)=C(C(=O)OC)C1 | > 100 | 
CCOC(=O)c1ccc(N2C(=O)/C(=C\OC)c3ccccc3C2=O)cc1 | > 100 | 
CC(=O)O[C@H]1C(=O)[C@@]2(C)[C@H]([C@H](OC(=O)C3CCCCC3)[C@]3(O)C[C@H](OC(=O)[C@H](O)[C@@H](NC(=O)C4CCCCC4)C4CCCCC4)C(C)=C1C3(C)C)[C@]1(OC(C)=O)CO[C@@H]1C[C@@H]2O | 0.74 | 
Cc1cc2c(F)c(Oc3ncnn4cc(OC[C@@H](C)OC(=O)[C@H](C)N)c(C)c34)ccc2[nH]1 | 26.6 | 13.2 µM
COC[n+]1cc2cc(OC)c(OC)cc2c2ccc3cc(OC)c(OC)cc3c21 | > 100 | 
CC(C)CCC[C@@H](C)C1CCC2[C@@H]3CCC4CC(CCC=C(c5cc(Cl)c(OC(=O)c6ccccc6)c(C(=O)O)c5)c5cc(Cl)c(OC(=O)c6ccccc6)c(C(=O)O)c5)CC[C@]4(C)C3CC[C@@]21C (stereo not given in full) | > 100 | 
CSc1cc(Cl)c(C)cc1S(=O)(=O)NC(=O)NNc1ccc(F)c(Cl)c1 | > 100 | 
CCN(CC)CCS(=O)c1c2cc(OC)ccc2nc2ccc(OC)cc12 (stereo not given) | 32.9 | 
CNC(=O)c1cccc(-c2ccc3c(N4CCOC[C@@H]4C)nc(N4CCOC[C@@H]4C)nc3n2)c1 |  | 0.0941 µM and 0.152 µM and 0.101 µM
COc1ccc(/C=C\c2cc(OC)c(OC)c(OC)c2)cc1OCC(=O)Nc1nc2ccc(C(F)(F)F)cc2s1 | > 100 | 5.38 µM
CC(C)C(N=Cc1ccccc1O)C(=O)O (stereo not given) | > 100 | 
C=C1C(=O)OC2CC3(CO3)C3C(O)C(O)CC3(C)CC12 (stereo not given) | > 100 | 
c1ccc2sc(C3(N4CCCCC4)CCCC3)cc2c1 | 24.1 | 
Cc1[nH]c(/C=C2\C(=O)Nc3ccc(F)cc32)c(C)c1C(=O)NC[C@H](O)CN1CCOCC1 | > 10 | 3.05 µM
CN(C)c1ccc2c3c(c(=O)oc2c1)CCC3 | > 100 | 
O=c1cc2ccccc2nn1-c1ccccc1Cl | > 100 | 
CC(C)CC1c2[nH]c3ccccc3c2C[C@H]2C(=O)NC(CCC(=O)OC(C)(C)C)C(=O)N12 (stereo not given in full) | > 100 | 
O=C(CCCn1ccnc1[N+](=O)[O-])NCCn1ccnc1 | > 100 | 
C=C1C(=O)OC2C1C(OC(=O)/C(C)=C/C)CC1(C)C(=O)CCC(=C)C21 (stereo not given) | 45.5 | 
O=C(O)c1cc2c(cn1)[nH]c1ccccc12 | > 100 | 

Structure (SMILES) | TGI [µM] | GI50
O=C([CH-]C(=O)c1ccccc1)c1ccccc1.O=C([CH-]C(=O)c1ccccc1)c1ccccc1.[Nd+3].[OH-].[OH3+] | 56.1 | 14.6 µM
Cc1cc(C)nc(Nc2nc3ccc([N+](=O)[O-])cc3[nH]2)n1 | > 100 | 
O=C1N=C(c2ccccc2)O/C1=C\c1ccccc1 | > 100 | 
O=C(Oc1ccc(CCl)cc1)c1ccccc1 | 1.42 | 0.392 µM
O=S(=O)(O)c1c(N=Nc2c(O)ccc3ccccc23)ccc2ccccc12 | > 100 | 
CCOC(=O)c1c(NC(=O)Nc2ccccc2)c(C(N)=O)c2n1CCCCC2 | > 100 | 
C=C(C)[C@@H]1CC[C@]2(C(=O)O)CC[C@]3(C)[C@H](CC[C@@H]4[C@@]5(C)CC[C@H](C(=O)/C=C/c6ccc(O)cc6)C(C)(C)[C@@H]5CC[C@]43C)[C@@H]12 | 23.5 | 
Cc1ccc(S(=O)(=O)NNC(=S)Nc2cccc3ccccc23)cc1 | > 100 | 
O=S(O)c1cc(Cl)cc(Cl)c1O | > 100 | 
CCSc1nc(N=Cc2cccs2)c2cn[nH]c2n1 | 28 | 6.24 µM
O=C1c2ccccc2-c2ccc(N=[N+]([O-])c3ccc4c(c3)C(=O)c3ccccc3-4)cc21 | > 100 | 
CC1NOC(=O)C1N=Nc1ccccc1Cl (stereo not given) | > 100 | 
C=C1C(=O)C23CC1C[C@H](OC(C)=O)C2C1(C)C(OC(C)=O)C[C@H](O)C(C)(C)[C@H]1C(O)[C@@H]3OC(C)=O (stereo not given in full) | 43.9 | 
CCOC(=O)CC[C@@H](NC(=O)c1ccc(N[C@@H]2c3cc4c(cc3C(c3cc(OC)c(O)c(OC)c3)C3C(=O)OC[C@@H]32)OCO4)cc1)C(=O)OCC (stereo not given in full) | 0.833 | 
COc1ccc(OC)c2nc3c(C(=O)NCCN(C)C)cccc3nc12 | 25.5 | 
O=C1/C(=C\c2ccc(-c3ccc(Cl)cc3Cl)o2)SC2N=C(COc3ccc(Cl)cc3)NN12 (stereo not given) | > 100 | 
CC(=O)OC(C)(C)/C=C/C(=O)[C@](C)(O)[C@H]1[C@H](O)C[C@@]2(C)[C@@H]3CC=C4[C@@H](C[C@H](O)C(=O)C4(C)C)[C@]3(C)C(=O)C[C@]12C | 13.4 | 
O=C(O)C12C3CCCC1C2CC3 (stereo not given) | > 100 | 
Cc1c2cc[nH]c(=O)c2cc2c(=O)c3cnccc3[nH]c12 | > 100 | 
CC(=O)c1ccc2c(c1)oc(=O)n2CCN1CCCCC1 | > 100 | 
O=C(c1ccccc1)c1c(C(=O)c2ccccc2)c(-c2ccccc2)c2c(-c3ccccc3)sc(-c3ccccc3)c2c1-c1ccccc1 | > 100 | 
CCOC(=O)C(=O)Nc1c(N(CC)CC)n2ccccc2nc1=O | > 100 | 
